Source: PubChem BioAssay AID1508623 (National Center for Advancing Translational Sciences (NCATS), 2021)
The campaign covered roughly 48,000 compounds. About 450 (0.94%) were called active. Inconclusive results (about 19%) are left out. Calls come from the whole dose curve; as a rule, active = well fitted inhibition curve with a large enough effect; inconclusive = small, poorly fitted or top-dose-only effect; inactive = no such curve, though single readings can be large or run the other way. The list shows a part of the results.

Assay: Primary qHTS for Identification of Small Molecule Inhibitors of Huntingtin Promoter Activity; note: nearly all actives have a fitted effect of over 50% in size
Conditions: HEK293 HTT promoter firefly luciferase reporter (activity 0% = vehicle and -100% = no light), 24 h; series mostly up to 57.5 µM; activity change, negative = inhibition: at the top concentration
Procedure, shortened: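 HEK293 cells carrying firefly luciferase reporters were seeded at 2,500 per well in Opti-MEM and cultured for 24 h. They were then treated with compounds at up to 57.5 uM final for 24 h at 37 degrees C before Dual-Glo luminescence readout.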

Activity change, negative = inhibition, inactive:
O=C(CN1CCN(Cc2ccc(F)cc2Cl)C1=O)NCCc1ccc(Cl)cc1 -11.3%, CCOc1ccc(C(=O)Nc2ccc3oc(-c4cccc5ccccc45)nc3c2)cc1 -13.2%, COc1ccc(OC)c(NC(=O)N2CC(C)Oc3ccc(C)cc32)c1 (configuration not stated) -16.5%, Cc1ccc(C(=O)c2cn(CC(=O)NCc3ccccc3)c3nc(C)ccc3c2=O)cc1 17.5%, Cc1cc(C)n(CC(=O)Nc2cc(F)ccc2F)c(=O)c1C#N -9.34%, COc1ccc(CCN(C)CCCOc2ccc(S(=O)(=O)c3[nH]c4ccccc4c3C(C)C)cc2)cc1OC 7.76%, COc1cccc(C(=O)Nc2ccc3nc4n(c(=O)c3c2)CCCCC4)c1 26.8%, Cc1ccc(O)c(Nc2nc3ccccc3c3nncn23)c1 -15.3%, CCOc1ccc(-c2nc(C(N)=O)c3c(n2)n(-c2ccc4c(c2)OCO4)c(=O)n3CC)cc1 -7.28%, CC1CNc2c(cccc2S(=O)(=O)N[C@@H](CCCN=C(N)N)C(=O)N2CC[C@@H](C)C[C@@H]2C(=O)O)C1 (some centres not stated) -0.757%, CC1=C(C(N)=O)C(c2ccccc2F)n2nc(-c3ccc(Cl)cc3)nc2N1 (configuration not stated) 6.58%, COC(=O)c1cc(S(=O)(=O)N2CCN(c3cc(Cl)ccc3C)CC2)c[nH]1 -5.06%, O=S(=O)(NCC(c1ccco1)N1CCOCC1)c1ccc(F)cc1 (configuration not stated) -3.09%, Cc1cc(C)c2oc(C(=O)Nc3c(C(=O)c4ccccc4)oc4ccccc34)cc(=O)c2c1 15.4%, COc1ccccc1CNc1ncnc2c1c(-c1ccccc1)cn2-c1ccc(Br)cc1 -23.8%, Cc1ccc(C(=O)NCCC(C)C)cc1NC(=O)c1nsc2ccccc12 -16.7%, COc1cc2c(=O)c(C(=O)c3ccc(F)cc3)cn(Cc3cccc(F)c3)c2cc1OC -7.01%, CCN(CC)c1ccc(NC(=O)Cn2c3ncccc3c(=O)n2-c2ccccc2)c(C)c1 -6.41%, Cc1ccccc1CNC(=O)C(=O)NCC(c1ccc2c(c1)OCO2)N1CCOCC1 (configuration not stated) -14.5%, CN(CCCNC(=O)Cn1ncc2c([nH]c3ccccc32)c1=O)Cc1ccccc1 0.0992%, Cc1ccc2c(c1)-c1c(cnn1CC(=O)N1CCN(c3cc(C)ccc3C)CC1)CO2 -17.6%, Cc1ccccc1S(=O)(=O)Cc1ccc(C(=O)NCCc2ccccc2)o1 13.2%, CC1CCN(c2csc3ccc(F)cc3c2=O)CC1 18.3%, O=C(NCc1ccc(Cl)cc1)c1ccc(CNS(=O)(=O)c2ccc(F)cc2)cc1 -2.55%, COCCc1nn2c(=O)cc(COC(=O)c3ccco3)nc2s1 -4.91%, CCC(Sc1nc2cc(OC)c(OC)cc2c(=O)n1Cc1ccc(OC)cc1)C(=O)NCCOC (configuration not stated) -7.65%, CC(=O)c1ccc(NC(=O)c2cc(S(=O)(=O)N3CCOCC3)ccc2C)cc1 -34.7%
